# Source: paper PMC12136788
# The list shows a part of the results.
# T1: UNK ZnF1-3 (human, UniProt Q9C0B0 31-174)
# T1 sequence: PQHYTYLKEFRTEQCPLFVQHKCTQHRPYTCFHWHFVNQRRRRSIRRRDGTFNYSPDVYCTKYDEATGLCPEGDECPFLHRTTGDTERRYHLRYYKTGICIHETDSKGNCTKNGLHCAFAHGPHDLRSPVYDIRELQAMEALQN
# B1: chr12:110720550:110720551:+_ENSG00000174437_ENST00000539276|hu_hu|FALSE|FALSE (ssRNA)
# RNA: GGGAGUUCUACAGUCCGACGAUCUUCUUCAAACCAAGCCAAAACAAAAGAUAUACAUGCUGCCAGUAAUAAAAUCCUAACUAGCAAGUCUUCAAACUGCUCAAUCACAAGUUCCAGCAAGGUUUUUCCUUCUUCAGCCGGUAACAACAGAGGAUUGAGCAUCA
# B2: chr6:41067180:41067181:+_ENSG00000001167_ENST00000341376|hu_hu|FALSE|FALSE (ssRNA)
# RNA: GGGAGUUCUACAGUCCGACGAUCACAAAAUUCAAAGUCAUCUCCCCCCAAAUAAAAAAUUCAGCAACAAGGCUGGCAUUACUAUGUACAAACUUACAGACACAAAUAAAUAGCAUCUUCUAACUGUUGGCAGCUUAAGCACUCCAACAGAGGAUUGAGCAUCA
# B3: 76460248_76461003_3569_CDS_ENSMUSG00000059323_ENSMUST00000168185|mouse|control|control (ssRNA)
# RNA: GGGAGUUCUACAGUCCGACGAUCCAAGGUUUUCAGGUGCACAGCAUCUUGGAAGGCACCGCCCAGGGCAGCCUGGUGGCUCAGGAAGAAACUGGAGCUGAAGCCACAGGCCUGUAGGCGCAGGGUGCUGAGCAUGGGGCAGGCCAACAGAGGAUUGAGCAUCA
# B4: chr17:30658727:30658728:-_ENSG00000108666_ENST00000577809|hu_hu|motif|central (ssRNA)
# RNA: GGGAGUUCUACAGUCCGACGAUCUUCAAAUCAUCUUAAAUAGCAAUCCUAUGAACAAUUAUAACUGCAAUUUCAAACACGGAGACUUAAAUAUACAACUUGAUCAUACAAUUAUCUCAAAACAUAUGAUCAAAAACUUUGGUCCAACAGAGGAUUGAGCAUCA
# B5: 30706281_30707774_1103_CDS_ENSMUSG00000040850_ENSMUST00000041231|mouse|control|control (ssRNA)
# RNA: GGGAGUUCUACAGUCCGACGAUCUAAAAAUCUUGGGACUAAAACUUGACUGCUUCCCACUGGGAGGUUCAGGCUUCUCAGAAUUCUUGUAAAUAUCUUCGGUACAUAUGGAUCCCAAUCUAUGUAUCCUAUAUUAUCUGUAGCCAACAGAGGAUUGAGCAUCA
# B6: chr17:57652765:57652766:+_ENSG00000108406_ENST00000251241|hu_hu|motif|central (ssRNA)
# RNA: GGGAGUUCUACAGUCCGACGAUCAUCAUAAUCAUAAUCAACAGACUCUGCCAUCUGAAAAAGUAACUCACAACUUUUUUCGGUUUCAAACUGGCCAGUCAGAAAAACCAAGAUGUCUCCAGCCAUUUCAUUCAAAUGGAUAUCCAACAGAGGAUUGAGCAUCA
# B7: 32644763_32644883_1895_3pUTR_ENSMUSG00000002997_ENSMUST00000036497|mouse|control|control (ssRNA)
# RNA: GGGAGUUCUACAGUCCGACGAUCAAAAGGUAGAAAAUGAAAUGAUUGACACUUUACCAUCUGAUGAAUUAUAAAAAGAAUGGAAUACCACGUUAGAGCGCAUGAGCCACUGCCAGCUUCCCCCCUAAAGGAGCAUAGUCACUACAACAGAGGAUUGAGCAUCA
# B8: chr10:117126822:117126823:-_ENSMUSG00000020184_ENSMUST00000020408|mus_mus|motif|central (ssRNA)
# RNA: GGGAGUUCUACAGUCCGACGAUCAGGUGCCUUUACUGGCUGAGUCUUCUCUGCAGCCCACAACUCACACAUUUUAGAUUACGGCAGUUUCAGAAUUUCAAUAACUUAAAUAUACAAUCCUUCACAUAGUCUUUAACUCUUUACCAACAGAGGAUUGAGCAUCA
# B9: chr1:182792627:182792628:+_ENSMUSG00000038806_ENSMUST00000038091|mus_mus|motif|central (ssRNA)
# RNA: GGGAGUUCUACAGUCCGACGAUCAGAGUGUGUACCAGAGGCCGAGCUCCGAGGACUGCCAGGUCGGUCGGCUGCCACCUCGGCAGCAUCAAUGCCGUCUUCCCGAGCACAGCAGCUCUGCUCCGAAGUCCCAGGAGCAUCCUCCAACAGAGGAUUGAGCAUCA
# B10: chr16:94690476:94690477:+_ENSMUSG00000040785_ENSMUST00000117648|mus_mus|motif|central (ssRNA)
# RNA: GGGAGUUCUACAGUCCGACGAUCAGAAAUGUAAUGUAUUCAAGGUUCACAUGUCUGUAUUUGCCACUGCCUACAGGUCACGGAAAAUACCUAGUUUUUGAAUAGUUUCUAAUACAGUUAGCUUGUUUUCAGGCCACAUUACAACAACAGAGGAUUGAGCAUCA
# B11: 29794794_29795651_712_3pUTR_ENSMUSG00000019715_ENSMUST00000019859|mouse|control|control (ssRNA)
# RNA: GGGAGUUCUACAGUCCGACGAUCGCCUGCUUCACACGCUGCUGCUCUGCCUCUCGAAGCUUUAGGUUGAGAAUCUUGGCUCUGUGGCGGUGCUCCUCUUUCAGCUUCUCCUGAUGGCCCAGGGCCUCCCUGGUACUCUUCUCCCAACAGAGGAUUGAGCAUCA
# B12: chr9:44139228:44139229:+_ENSMUSG00000032123_ENSMUST00000054708|mus_mus|FALSE|FALSE (ssRNA)
# RNA: GGGAGUUCUACAGUCCGACGAUCCCAGUUGUGGUAAAGCAGUCCCAAGGUGGUAAAGAAAAAUGGUAUCAUGAAGUAAAGGGAAAAGAUAUGAUCAUCUCGAUAAUCACCUUCCAGUUCCACCAGGUUGAAGACAAUGAUAGACAACAGAGGAUUGAGCAUCA
# B13: chr17:57816259:57816260:+_ENSG00000062716_ENST00000262291|hu_mus|motif|central (ssRNA)
# RNA: GGGAGUUCUACAGUCCGACGAUCCAGAUAAAGCAGAAAGGUGUGCAGUCCUGUUCCAAGACCAACAGAGGACAAAAUCCCCAGGCCGGUCCAGUAUGCAUACAAAAGAAACUGCUUCUCUAUCCGCUGCACAUACUGUUGGUGCAACAGAGGAUUGAGCAUCA
# B14: chr17:62499352:62499353:-_ENSG00000108654_ENST00000581693|hu_hu|motif|central (ssRNA)
# RNA: GGGAGUUCUACAGUCCGACGAUCGUCUUAUUUGAUCCACAAUCUUCCUUAUUUGGGGUUCAAAGCCCAUAUCAAGCAUUCGGUCUGCUUCAUCAAGGACAAGGUAGGUUGUUCUUCUCAGAUUGGUUUUUCCACACUCUAAAACAACAGAGGAUUGAGCAUCA
# B15: chr13:100204638:100204639:-_ENSMUSG00000052727_ENSMUST00000064762|mus_mus|motif|central (ssRNA)
# RNA: GGGAGUUCUACAGUCCGACGAUCGGGGGUGGGCACCUGGCCAGUGAGAUCUUUUUGGGUGGCCAGUGGCUGCUUUAGGAAAUCGGGAUGUUUGAGUUUCUCCAGUCCUUCUAGGAUGUUGUACUGGGUACUGUUUCCGGGAAACAACAGAGGAUUGAGCAUCA
# B16: 100489142_100489262_224_3pUTR_ENSMUSG00000008763_ENSMUST00000008907|mouse|control|control (ssRNA)
# RNA: GGGAGUUCUACAGUCCGACGAUCCUGCCAUGCCCGCGCCCCGGCGCGAUGCUCAGAGGCGGCUGCCCGCCCCGGGAGGCGCCCGGCGAAGACGACGAGUUGCAGUAGGUCGGUUCCACUCGGUCCCCUCCGGAGCCUCCUCCGCAACAGAGGAUUGAGCAUCA
# B17: chr6:119226881:119226882:+_ENSG00000111875_ENST00000229595|hu_hu|motif|central (ssRNA)
# RNA: GGGAGUUCUACAGUCCGACGAUCUGGAUUUUCCCUUAAUUCUGUCUCAGUAUAUUCAUUAUUUACAUAAUAGCCAACUCGGAUAAAUUCUUGUCCUCGAUAGGUACAAGUAAUUAGCACAACAGUUACGCCUACUGCAUCUGCCAACAGAGGAUUGAGCAUCA
# B18: 71579700_71580607_959_3pUTR_ENSMUSG00000024052_ENSMUST00000129635|mouse|control|control (ssRNA)
# RNA: GGGAGUUCUACAGUCCGACGAUCUGGGAAUUACCCUGAAAUGUGUGUUCUCUGAUGGUGUAAUCGUAGCUGUCCUUGGAUGAUAGUCAUACCGUUCUCUUUUGGUGACCUUGGUGGACUCUGGGAACCCGCCCCACGUCCACUCAACAGAGGAUUGAGCAUCA
# B19: chr2:102142331:102142332:-_ENSMUSG00000027189_ENSMUST00000102573|mus_mus|FALSE|FALSE (ssRNA)
# RNA: GGGAGUUCUACAGUCCGACGAUCAGCUUUGAGGACGAAGCUGAUACCAGUACAGAAAGUAUUCUUGUUCUUACAUUGAUAAAUGCUGCCACUAGGAACUUAGGGAUCUGGGCUAGGGGCUGCUGUGCUGUGUUUAAUGCUUUUCAACAGAGGAUUGAGCAUCA
# B20: chr1:46159212:46159213:+_ENSG00000159596_ENST00000372025|hu_mus|hu_hu_hu_mus_True|8_58 (ssRNA)
# RNA: GGGAGUUCUACAGUCCGACGAUCUCUGAUCCCUCCCAAGAAAGCUAGGAAACCGGCUCCAUAAGCCAUCUGAGUGAAAGCUAAUAUGGGGAUAUAAGACUUUGUUAUUACCAUGAGAAGUGGGGGAGCAACGAAGGGGAUUAACAACAGAGGAUUGAGCAUCA
# B21: chr19:8913615:8913616:-_ENSMUSG00000071658_ENSMUST00000096259|mus_hu|mus_mus_mus_hu_False|38_58 (ssRNA)
# RNA: GGGAGUUCUACAGUCCGACGAUCAGGGUACCAAAACCUUCUGCCUGAAAUGGGUGCCCCACCCAGUAGGGAGUUGCAGCUAAAAAUAUCUGAUGCACUGACAGUUACUAUACGAAAGGAGGCCCCUGGGGAGGGCCAGGCCAGCAACAGAGGAUUGAGCAUCA
# B22: chr5:128448638:128448639:+_ENSG00000066583_ENST00000173527|hu_mus|hu_hu_hu_mus_False|78_98 (ssRNA)
# RNA: GGGAGUUCUACAGUCCGACGAUCGGCACUCGCCUUAAUUAGAUUCUGAAUUUCCUUGAAUUUUGGAUGGUCUUUGUCAGCCACCAGCUGUAGGAGGACAGCCUCACUAGUGGUCACGAUGAUCCCAGUGCGGGCAAGACGCUCCAACAGAGGAUUGAGCAUCA
# Biological target: T1, UNK ZnF1-3
# Test: nsRBNS (natural sequence RNA bind-n-seq); RBNS binding buffer (assumed for nsRBNS): 25 mM Tris pH 7.5, 150 mM KCl, 3 mM MgCl2, 0.01% Triton X-100, 500 ug/ml BSA, 20 U/ml SUPERase-In, 4 C; UNK is unkempt and MSI1 is Musashi-1; names of the RNAs are library labels; protein concentration not given here; high values mean tight binding
row,Binder,binding signal
1,B1,1.21 enrichment R
2,B2,2.7 enrichment R
3,B3,1.06 enrichment R
4,B4,0.793 enrichment R
5,B5,0.885 enrichment R
6,B6,0.971 enrichment R
7,B7,2.02 enrichment R
8,B8,1.03 enrichment R
9,B9,0.788 enrichment R
10,B10,0.656 enrichment R
11,B11,0.632 enrichment R
12,B12,1.41 enrichment R
13,B13,0.959 enrichment R
14,B14,0.706 enrichment R
15,B15,0.761 enrichment R
16,B16,0.69 enrichment R
17,B17,1.02 enrichment R
18,B18,0.577 enrichment R
19,B19,1.67 enrichment R
20,B20,1.46 enrichment R
21,B21,1.39 enrichment R
22,B22,0.961 enrichment R
